Test results published in ChEMBL document CHEMBL4888484, “Replenishing the malaria drug discovery pipeline: Screening and hit evaluation of the MMV Hit Generation Library 1 (HGL1) against asexual blood stage Plasmodium falciparum ,using a nano luciferase reporter read-out” (2022).
Hit rate of the full screen: of about 150,000 compounds, about 540 (0.36%) showed an effect of 50% or more. This is one part of the list.

System: Plasmodium falciparum
Assay: Primary screen in NF54 nanoGlo assay, in single point, at 2uM, 72h; a lower Z score goes with more inhibition
Format: functional, Erythrocyte
Details: timepoint 72 hour

| SMILES | % Inhibition [%] | Z score |
| --- | --- | --- |
| Cc1c(NC(=O)CN2CCN(c3ccccc3F)CC2)c(=O)n(-c2ccccc2)n1C | 7 | -1.34 |
| Cc1nn(C)c(C)c1CN(CCC(=O)Nc1nccs1)C(C)C | -4 | 0.61 |
| COCC1(NC(=O)Nc2cccc(CC(=O)OC)n2)CCC1 | -4 | 0.83 |
| NC[C@H]1Cc2cccc(-c3cc(N4CCOCC4)ncn3)c2O1 | -7 | 0.9 |
| CN(C)c1nc(C2CC(N)C2)cc(N2CCC(F)(F)CC2)n1 (stereo not given) | -10 | 0.97 |
| Cc1cc(NC(=O)[C@H](C)c2ccccc2)cnc1C(F)(F)F | 6 | -0.8 |
| COc1ccc(N2CCN(CC(=O)NCc3ccncc3)C2=O)cc1 | -1 | 0.15 |
| COc1ccc(N2CCN(C(=O)CCN3C(=O)c4ccccc4C3=O)CC2)cc1 | -8 | 0.91 |
| C[C@@H](CCCc1ccccc1)C(=O)Nc1nccn(C)c1=O | 3 | -0.38 |
| CCc1ccc(CN(C)CCc2c[nH]c(=O)n(C)c2=O)nc1 | 5 | -0.7 |
| O=C(c1cccc(-c2ncccn2)c1)N1CCN(Cc2nnc[nH]2)CC1 | -2 | 0.33 |
| CCc1nnc(CN(CC)Cc2c[nH]c(C)n2)o1 | -2 | 0.31 |
| O=C(N[C@@H](N1CCN(c2ccccc2)CC1)C(Cl)(Cl)Cl)c1cccs1 | -4 | 0.49 |
| CC(C)n1nccc1-c1ccc(N2CCOCC2)cc1 | -9 | 1.81 |
| CS(=O)(=O)N1C[C@H]2CCN(Cc3ccc(F)c(F)c3)C[C@@]2(CO)C1 | -16 | 1.92 |
| c1ccc(-c2nc(CNc3nnn[nH]3)cs2)nc1 | -2 | 0.25 |
| COc1ccc(Cn2cnn(C(C)(C)C)c2=O)cn1 | -3 | 0.37 |
| COc1ccc2c(c1)[C@@H](NC(=O)Cc1c(C)n[nH]c1C)CC(C)(C)O2 | 6 | -0.78 |
| NC(=O)c1cc(CNC(=O)c2occ3c2CCOC3)n2c1CCCC2 | -6 | 0.7 |
| Cc1ccc(S(N)(=O)=O)c(C(=O)N2CCC[C@H](C3CCC3)CC2)c1 | -10 | 1.46 |
| COc1cccc(-n2nc(C(=O)N3CCN(C(C)=O)CC3)c(=O)n(Cc3ccccc3Cl)c2=O)c1 | -12 | 1.86 |
| O=C(NCc1ccccn1)c1nn[nH]c1Nc1ccccc1F | 1 | -0.11 |

| SMILES | % Inhibition [%] | Z score |
| --- | --- | --- |
| Cc1cc(C)cc(OCc2noc(CN(C)C3(C(N)=O)CCCC3)n2)c1 | -4 | 0.56 |
| C[C@@H](c1nc(-c2cccs2)no1)N1CCc2cncnc2C1 | -10 | 1.05 |
| O=C(O)[C@H]1CC[C@@H](C(=O)N2CCc3c(Cl)cccc32)C1 | -12 | 2.4 |
| O=C(CCc1cccc2ccccc12)NCCN1CCOCC1 | 3 | -0.58 |
| NC(=O)C1CCCCC1Nc1nccc(C(F)(F)F)n1 (stereo not given) | -2 | 0.24 |
| O=S(=O)(NCc1cc2n(n1)CCCNC2)c1cc(Cl)c(Cl)s1 | -21 | 2.66 |
| COc1ccc(NC(=O)Cn2cnc3c(nc4n3CCCCC4)c2=O)cc1 | -4 | 0.6 |
| CN(CCn1cc(Cl)cn1)Cc1cnccn1 | -14 | 1.55 |
| COc1ccc(-c2cncc(CN3CCCC3)c2)cc1OC | -9 | 1.71 |
| CN1C(=O)CC[C@H](NC(=O)c2cc3c([nH]2)CCCC3)C1=O | -13 | 1.75 |
| C[C@@H](C(=O)NCc1cccs1)S(=O)(=O)c1cccc(Cl)c1 | -9 | 1.86 |
| CCN(C(=O)CCc1ccccn1)[C@@H](C)c1cccc(O)c1 | -13 | 1.22 |
| Cc1ccc(N2CCC(NCCc3csc(-c4ncccn4)n3)CC2)cc1 | -9 | 1.91 |
| Oc1cccc(CN(Cc2cccnc2)C2CCC(O)CC2)c1 (stereo not given) | -19 | 2.68 |
| Cc1cc(C)c(-c2nccn2CCN(C)C)cc1Cn1cncn1 | -9 | 1.45 |
| CCCCC(C(=O)N1CCN(CC(=O)N2CCCCC2C)CC1)N1CCCS1(=O)=O (stereo not given) | -3 | 0.38 |
| Cc1cc(O[C@H]2CCN(C(=O)CC(C)(C)C)C2)nc(C)n1 | -4 | 0.57 |
| CN(CCc1ccccn1)c1nc(C(F)(F)F)cs1 | -4 | 0.46 |
| CCOc1nnc(CN(C)[C@@H](C)c2ccc(F)cc2)s1 | -11 | 1.55 |
| CCCc1nc(N[C@@H](C)c2nncn2C(C)C)c2cnn(C)c2n1 | 5 | -0.74 |
| Fc1ccc(COC2CCN(Cc3csnn3)CC2)cc1 | -4 | 0.6 |
| CS(=O)(=O)Nc1ccc(F)c(NC(=O)NC2CCOCC2)c1 | -3 | 0.54 |

| SMILES | % Inhibition [%] | Z score |
| --- | --- | --- |
| CN(C[C@H]1CCS(=O)(=O)C1)C1CCCCCCC1 | 0 | -0.03 |
| CC(C)[C@@](C)(C#N)NC(=O)CN(C)CC1CCCCC1 | -12 | 1.45 |
| COc1ccc(OC)c(Nc2ncc3c(n2)CCNC3)c1 | -4 | 0.61 |
| Cc1nc(N2C[C@@H](F)C[C@H]2CO)sc1S(N)(=O)=O | -40 | 4.71 |
| Cc1nccn1[C@@H](C)Cc1nc(C2CCCC2)nn1CC(F)(F)F | 6 | -0.66 |
| Cc1cc(=O)[nH]c2cc(C(=O)NC3CCN(CC(F)(F)F)CC3)ccc12 | -3 | 0.57 |
| O=C(NC1CCCCCC1)c1ccc(-c2c(-c3ccc(F)cc3)ncn2C2CCCCC2)o1 | -2 | 0.25 |
| CCN1CCN(C(=O)NCc2noc3c2CCCC3)CC1=O | -24 | 2.16 |
| CC(C)(C)OC(=O)N1CCN(c2nnc(NCc3ncc[nH]3)[nH]2)CC1 | -11 | 1.82 |
| CC(C)Cc1nnc(C(=O)Nc2ccc(C(=O)NCCN(C)C3CCCCC3)cc2)s1 | -7 | 0.85 |
| COCC1(CNC(=O)NCc2cccnn2)CCC1 | 4 | -0.64 |
| Cc1ccn2c(NC(=O)CCOc3ccccc3)nnc2n1 | -5 | 0.68 |
| c1ccc(-c2ccc(Nc3cc(-c4ccccc4)nc(-c4ccccc4)n3)cc2)cc1 | -14 | 1.62 |
| COc1ccc(C(=O)Nc2ccn(Cc3ccccc3F)n2)cc1COc1ccccc1Br | 3 | -0.37 |
| Cc1ccc(C(=O)N2[C@H](C(=O)NCc3ccncc3)COC23CCN(C(=O)CC(C)(C)C)CC3)cc1 | 7 | -0.85 |
| CCOc1ccc([C@H]2C[C@@H](c3ccc(CC)cc3)Nc3nnnn32)cc1OC | -16 | 2.46 |
| CCN(Cc1nc2cc(Cl)ccc2c(=O)[nH]1)C(=O)c1ccc2nc(C)c(C)nc2c1 | -2 | 0.38 |
| CC(CC1CCOC1)NCc1ccccc1 (stereo not given) | -9 | 1.3 |
| Cc1noc(C)c1CNc1ccc(C(=O)N2CCC(C)CC2)cn1 | -20 | 3.93 |
| C[C@]1(c2ccc(Cl)c(Cl)c2)NC(=O)N(Cc2nc3ccccc3s2)C1=O | 1 | -0.09 |
| CCc1nnc(CN(C(=O)c2cc(C)c(C)[nH]c2=O)C(C)C)o1 | -17 | 3.4 |
| O=C(NC[C@H]1CCCNC1)c1ccc2nc(-c3ccc(F)cc3)cn2c1 | 11 | -1.55 |

| SMILES | % Inhibition [%] | Z score |
| --- | --- | --- |
| COc1ccc(S(=O)(=O)Nc2c(C)ccc(O)c2C)cc1[C@@]1(C)NC(=O)NC1=O | 6 | -0.69 |
| COC[C@H](C)NC(=O)c1cc(-c2ccc(C3CCCCC3)cc2)on1 | -5 | 0.95 |
| Cc1cccn2c(=O)c(C(=O)Nc3ncc(C4CCNCC4)s3)cnc12 | -17 | 2.16 |
| Cc1cc(N(C)C)cc(C)c1NC(=O)N(C)[C@@H](C)C1CC1 | -16 | 3.01 |
| O=C1C[C@@H](c2ccccc2)N(C(=O)CC2CCCC2)CCN1 | 2 | -0.31 |
| O=C(Cn1ccc2c(=O)[nH]ccc21)Nc1cccc(Br)c1 | -16 | 1.55 |
| CC#CC(=O)N(Cc1cc(Br)ccc1OCC)C1CC1 | 1 | -0.22 |
| CC(C)(C)c1cn(C2CCN(C(=O)[C@]3(C)CCCO3)CC2)nn1 | -2 | 0.37 |
| CO[C@H]1CCC12CCN(S(=O)(=O)c1c(C)noc1C)CC2 | -1 | 0.09 |
| Cc1ccsc1CN1CCn2nc(CCC(=O)O)cc2C1 | -12 | 1.83 |
| Cc1ccc(NCn2nc(-c3ccccc3)oc2=S)c(C)c1 | -3 | 0.42 |
| COc1cccc2c1Oc1c(c(=O)n(-c3ccc(C)cc3C)n1CC(=O)Nc1ccc(C)cc1C)C2 | 9 | -0.9 |
| COc1ccc(CC(=O)N2CC[C@@H](CC(=O)O)[C@@H](CCN3CCCCC3)C2)cc1 | 11 | -1.32 |
| Cc1cc(C2CCC(C(=O)O)CN2C(=O)C2CCCC2)ccc1F (stereo not given) | 3 | -0.46 |
| C[C@@H](c1nnnn1C1CC1)S(=O)(=O)C1CCC(C)(C)CC1 | -12 | 1.93 |
| O=C(Oc1nsnc1N1CCOCC1)N1CCCCC1 | -3 | 0.4 |
| CCOc1ncccc1C(=O)N1CCc2n[nH]c(C(=O)NC)c2C1 | 0 | -0.08 |
| O=C(OCc1nc(-c2ccccc2)no1)[C@@H]1COc2ccccc21 | 0 | -0.05 |
| O=C(Nc1cccnc1)[C@H]1CCC(F)(F)C1 | 9 | -1.35 |
